Out of some 94,000 compounds screened, about 4,000 (4.3%) were called active. Inconclusive means that the source gave no clear call. Such entries were picked first, then a sample of the others. Calls follow the shape of the dose curve; as a rule, active = well fitted inhibition curve with a large enough effect; inconclusive = small, poorly fitted or top-dose-only effect; inactive = no such curve, though single readings can be large or run the other way. Potencies beside an inconclusive call are fits to weak or partial responses and may not hold up.
Assay: Cytotoxic Profiling in NIH 3T3 Cell Line of Diverse Libraries Using Quantitative High-Throughput Screening; also: nearly all actives have a fitted effect of over 55% in size
Settings: NIH 3T3 viability, CellTiter-Glo ATP luminescence, 48-72 h; activity change, negative = cytotoxicity: at 96.7 µM (top of the series) unless noted; series mostly up to 96.7 µM
Procedure, shortened: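 Luminescent ATP readout (CellTiter-Glo, 10 min RT) after 48 or 72 hr compound exposure of NIH 3T3 cells seeded at 400 cells/well in 1536-well format; quantitative HTS.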
% is scaled to controls: 0 for no effect and ±100 for the full control effect; potency is read from the fitted curve at half-maximal effect; tags tell the direction and shape of the fitted curve.

Question: With `COc1ccc(C(=O)N2CC(N3C(=O)c4c(c(C)nn4-c4ccccc4)C3C3CC3)C2)cc1` (configuration not stated) as the compound, how does the Potency read?
Answer: Its Potency is inconclusive: 31.6 µM [inhibitor, full curve].

Question: With `Cc1nc(-c2ccncc2)ncc1C(C)NC(=O)CN1C(=O)CNC1=O` (configuration not stated) as the compound, how does the “activity change, negative = cytotoxicity” value read?
Answer: Its value is inactive: -2.23%.

Question: With `O=C(C1CC1)N1CCCC(c2nn(-c3ccc(Cl)cc3)c(=O)[nH]2)C1` (configuration not stated) as the compound, how does the “activity change, negative = cytotoxicity” value read?
Answer: Its value is inactive: -21.1%.

Question: For `COc1ccc(OC2CN(Cc3cccnc3)C2)cc1`, which Potency is on record?
Answer: Its Potency is inconclusive: 35.5 µM [inhibitor, partial curve, poor fit].

Question: With `Cc1csc(Nc2ccc3c(n2)CN(CCOc2ccccc2)C(=O)CO3)n1` as the compound, how does the Potency read?
Answer: Its Potency is inconclusive: 35.5 µM [inhibitor, partial curve, poor fit].

Question: For `O=C(NCc1cccc(Cl)c1)c1cn2cc(-c3ccc(C(F)(F)F)cc3)sc2n1`, which Potency is on record?
Answer: The Potency was active: 22.4 µM.

Question: For `O=C(Cc1ccccn1)N1CCC(C(=O)N2CCC(c3nc4ncccc4[nH]3)CC2)CC1`, which “activity change, negative = cytotoxicity” value is on record?
Answer: Its value is inactive: -15.6%.

Question: With `CS(=O)(=O)N1CCN2C(=O)N(Cc3cccnc3)C[C@H]2C1` as the compound, how does the “outcome” value read?
Answer: The value was “inactive [at 174 µM]”.

Question: For `CCN1c2cc(C(=O)NCc3cccc(OC)c3OC)ccc2C(=O)N2CCCCCC21` (configuration not stated), which Potency is on record?
Answer: The Potency was inconclusive: 28.2 µM [inhibitor, partial curve, poor fit].

Question: With `CCN(CC)CC(C)NC` (configuration not stated) as the compound, how does the “outcome” value read?
Answer: Its value is “inactive [at 279 µM]”.

Question: With `CCn1cc(-c2cc(C(=O)N3CCCCCC3)c3cccc(C)c3n2)cn1` as the compound, how does the Potency read?
Answer: Its Potency is inconclusive: 79.4 µM [inhibitor, single point].

Question: For `COc1ccc(-c2cc3c(ccn3C(C)C)c(C(=O)NCc3c(C)cc(C)[nH]c3=O)n2)cc1`, which Potency is on record?
Answer: Its Potency is inconclusive: 44.7 µM [inhibitor, partial curve, poor fit].

Question: For `O=C(O)CCCC(=O)N1CCN2C(=O)c3cc(-c4ccco4)ccc3NC(=O)[C@@H]2C1`, which “activity change, negative = cytotoxicity” value is on record?
Answer: Its value is inactive: -19.5% [at 138 µM].

Question: Which Potency does the source give for `CC1(C(=O)NC2CCOCC2)COCc2cnc(Nc3ccccc3)nc21` (configuration not stated) here?
Answer: Its Potency is inconclusive: 112 µM [inhibitor, single point].

Question: Which Potency does the source give for `COc1ccc(NC(=O)CC2CCCCN(Cc3ccccc3)C2=O)c(C)c1` (configuration not stated) here?
Answer: Its Potency is inconclusive: 50.1 µM [inhibitor, partial curve, poor fit].

Question: For `CC(=O)N1Cc2ccccc2CC2(CCCN(C)C2)C1` (configuration not stated), which “outcome” value is on record?
Answer: Its value is “inactive [at 138 µM]”.

Question: For `CCOc1ccccc1C(=O)NC1CCCN(c2cc(-c3ccc(OC)cc3)[nH]n2)C1` (configuration not stated), which Potency is on record?
Answer: Its Potency is inconclusive: 44.7 µM [inhibitor, partial curve, poor fit].

Question: For `C=C(CC)CN1CCCC12Cc1ccccc1CNC2=O` (configuration not stated), which Potency is on record?
Answer: The Potency was inconclusive: 79.4 µM [inhibitor, partial curve].

Question: With `COc1ccc2c(C)c(C(=O)N3CCCC3c3c(C)noc3C)oc2c1` (configuration not stated) as the compound, how does the Potency read?
Answer: Its Potency is inconclusive: 56.2 µM [inhibitor, partial curve, poor fit].

Question: With `CCN(CC)C(=O)[C@@H]1[C@H](c2cc(OC)c(OC)c(OC)c2)c2cc3c(cc2[C@H](O)[C@H]1CO)OCO3` as the compound, how does the Potency read?
Answer: Its Potency is inconclusive: 70.8 µM [inhibitor, single point].

Question: With `C#CCNC(=O)c1cc(-c2ccc(Cl)cc2)nc2c1cnn2C` as the compound, how does the Potency read?
Answer: Its Potency is inconclusive: 56.2 µM [inhibitor, partial curve, poor fit].

Question: For `CCOC(=O)[C@@H]1CN(C(=O)c2cc3ccccc3s2)[C@H]2c3cccc(F)c3O[C@@H]12`, which Potency is on record?
Answer: The Potency was inconclusive: 44.7 µM [inhibitor, partial curve, poor fit].

Question: With `CCS(=O)(=O)N1CCC2(CCC(=O)N(Cc3ccccc3)CC2)CC1` as the compound, how does the “activity change, negative = cytotoxicity” value read?
Answer: Its value is inactive: -8.16%.

Question: For `Cc1cc(=O)n(CC(=O)Nc2cc(F)ccc2F)c(N2CCc3ccccc3C2)n1`, which Potency is on record?
Answer: Its Potency is inconclusive: 50.1 µM [inhibitor, partial curve, poor fit].

Question: For `CCc1noc(-c2cn(C3CCN(C(=O)c4cccc(Cl)c4)C3)nn2)n1` (configuration not stated), which Potency is on record?
Answer: Its Potency is inconclusive: 20 µM [inhibitor, full curve, poor fit].

Question: Which Potency does the source give for `CC(C)CNC(=O)c1cn2cc(-c3ccccc3)sc2n1` here?
Answer: Its Potency is inconclusive: 44.7 µM [inhibitor, full curve].

Question: With `COc1ccc(C(=O)Nc2cc(-c3ccncc3)nn2-c2ccccc2)cc1` as the compound, how does the Potency read?
Answer: Its Potency is inconclusive: 44.7 µM [inhibitor, partial curve, poor fit].

Question: With `Cc1ccc(C)n1-c1ccc(C(=O)N2CCC3(CCC(=O)N(CC4CC4)CC3)CC2)cc1` as the compound, how does the Potency read?
Answer: The Potency was inconclusive: 44.7 µM [inhibitor, partial curve].

Question: With `CCOC(=O)[C@H]1C[C@]2(CCCCN(CCO)C2=O)N(C(=O)OCC(C)C)[C@H]1c1ccco1` as the compound, how does the Potency read?
Answer: The Potency was inconclusive: 70.8 µM [inhibitor, single point].

Question: With `COc1ccccc1Nc1ccnc(N2CCC(C(=O)NCC(F)(F)F)CC2)n1` as the compound, how does the Potency read?
Answer: The Potency was inconclusive: 35.5 µM [inhibitor, partial curve].

Question: Which Potency does the source give for `Cc1ccc(C(=O)NC2CCN(c3cc(-c4ccc(F)cc4)[nH]n3)C2)cc1C` (configuration not stated) here?
Answer: Its Potency is inconclusive: 44.7 µM [inhibitor, partial curve, poor fit].

Question: Which “activity change, negative = cytotoxicity” value does the source give for `Cc1ccc(C(=O)N2CCOc3ccc(NC(=O)C4CC4)cc3C2)cn1` here?
Answer: The value was inactive: -16.4%.

Question: With `CC(=O)c1ccc(C(=O)N2CCCC(C(=O)c3cccc(C(F)(F)F)c3)C2)s1` (configuration not stated) as the compound, how does the Potency read?
Answer: Its Potency is inconclusive: 35.5 µM [inhibitor, partial curve].

Question: With `O=C(NCc1ccc2c(c1)OCO2)c1csc(N2CCN(c3ccc(F)cc3)CC2)n1` as the compound, how does the Potency read?
Answer: The Potency was inconclusive: 39.8 µM [inhibitor, partial curve].

Question: Which Potency does the source give for `O=C(NCCc1c[nH]c2ccccc12)c1coc(COc2ccc3c(c2)OCO3)n1` here?
Answer: Its Potency is inconclusive: 39.8 µM [inhibitor, partial curve].

Question: With `Cc1noc2c(-c3cccnc3NCC3CCOCC3)cc(-c3ccccc3)nc12` as the compound, how does the Potency read?
Answer: The Potency was inconclusive: 56.2 µM [inhibitor, partial curve, poor fit].

Question: For `Cc1c(-c2ccccc2F)[nH]c2ccc(CNC(=O)CCc3cc(=O)[nH]o3)cc12`, which Potency is on record?
Answer: Its Potency is inconclusive: 89.1 µM [inhibitor, single point].

Question: Which “activity change, negative = cytotoxicity” value does the source give for `O=C(NCCc1noc(C(F)(F)F)n1)[C@H]1CCC[C@H](O)C1` here?
Answer: Its value is inactive: -6.38%.

Question: With `O=C1NCCCCCN(C(=O)CC2CCCC2)[C@@H]2C[C@@H](C(=O)N3CCc4ccccc4C3)C[C@H]12` as the compound, how does the Potency read?
Answer: The Potency was inconclusive: 79.4 µM [inhibitor, partial curve, poor fit].

Question: Which Potency does the source give for `Fc1ccc2c(c1)nc1n2[C@@H](CNCc2ccccc2)COC1` here?
Answer: The Potency was inconclusive: 70.8 µM [inhibitor, partial curve].

Question: Which “activity change, negative = cytotoxicity” value does the source give for `CNC(=O)C1CCCN1Cc1ccc(-c2cncnc2)cc1` (configuration not stated) here?
Answer: The value was inactive: -9.1% [at 138 µM].

Question: With `O=C(NCc1ccccc1F)c1ccc(-c2ccc(N3CCSCC3)nc2)cc1` as the compound, how does the “activity change, negative = cytotoxicity” value read?
Answer: Its value is inactive: -9.79%.

Question: For `O=C(c1cc2n(n1)CC(c1ccc(Cl)cc1)OC2)N1CCN(c2ccccn2)CC1` (configuration not stated), which Potency is on record?
Answer: The Potency was inconclusive: 50.1 µM [inhibitor, partial curve, poor fit].

Question: For `Fc1ccc(Nc2cc3c(cn2)CN(Cc2ccccc2)CCN3)cc1`, which Potency is on record?
Answer: Its Potency is active: 31.6 µM.

Question: Which Potency does the source give for `O=C(CC1CCCN(c2cnn(CC3CC3)c(=O)c2)C1)NCCc1c[nH]c2ccccc12` (configuration not stated) here?
Answer: Its Potency is inconclusive: 70.8 µM [inhibitor, single point].

Question: With `O=C1COc2ccc(Nc3ccccc3F)nc2CN1Cc1ccc(F)cc1` as the compound, how does the Potency read?
Answer: Its Potency is inconclusive: 56.2 µM [inhibitor, partial curve, poor fit].

Question: Which Potency does the source give for `O=C(CC1CCCCC1)N1CCC2(CC1)NC(=O)N(c1cccc(F)c1)N2` here?
Answer: Its Potency is inconclusive: 11.2 µM [inhibitor, full curve, poor fit].

Question: Which Potency does the source give for `O=C(c1cc(-c2cnccc2Cl)c2cccn2n1)N1CCCC1` here?
Answer: The Potency was inconclusive: 50.1 µM [inhibitor, partial curve, poor fit].

Question: For `O=C(CC[C@@H]1CNC(=O)[C@@H]2C[C@H](NC(=O)c3cccc(F)c3)CN12)NCc1ccc(F)cc1`, which “activity change, negative = cytotoxicity” value is on record?
Answer: The value was inactive: -2.31%.

Question: For `COc1cccc(C(O)c2nc(C(=O)Nc3ccc4c(c3)CC(=O)N4)c(C)o2)c1` (configuration not stated), which Potency is on record?
Answer: Its Potency is inconclusive: 112 µM [inhibitor, single point].

Question: For `O=C(NC[C@H]1O[C@H](Cc2cc(-c3ccc(F)cc3)on2)CC[C@@H]1O)c1ccccc1F`, which “activity change, negative = cytotoxicity” value is on record?
Answer: The value was inactive: -25.8% [at 138 µM].

Question: With `CN(Cc1cccc(-c2nn[nH]n2)c1)Cc1cn(-c2ccccc2)nn1` as the compound, how does the “activity change, negative = cytotoxicity” value read?
Answer: Its value is inactive: -1.59%.

Question: Which Potency does the source give for `Cc1nn(-c2ccccc2)c2c1C(C1CC1)N(C1CN(C(=O)c3ccccc3)C1)C2=O` (configuration not stated) here?
Answer: Its Potency is inconclusive: 44.7 µM [inhibitor, partial curve, poor fit].

Question: For `O=[S+]([O-])(c1cccs1)N1CCCN(c2ccc3nnc(C4CC4)n3n2)CC1`, which Potency is on record?
Answer: The Potency was inconclusive: 50.1 µM [inhibitor, partial curve, poor fit].

Question: Which Potency does the source give for `COc1ccccc1CN1CCNc2cc(-c3ccccc3)ncc2C1` here?
Answer: The Potency was inconclusive: 50.1 µM [inhibitor, partial curve, poor fit].

Question: For `O=C(c1ccc2c(c1)OCO2)N1CCn2c(nnc2-c2ccc(Cl)cc2)C1`, which Potency is on record?
Answer: The Potency was inconclusive: 35.5 µM [inhibitor, partial curve, poor fit].

Question: For `COc1ccc(C(=O)N2CCC3(CC2)NC(=O)N(c2ccccc2Cl)N3)cc1`, which Potency is on record?
Answer: The Potency was inconclusive: 44.7 µM [inhibitor, partial curve, poor fit].

Question: With `CCC1(CO)CCCN(Cc2ccc3c4c(cccc24)C(=O)OC3)C1` (configuration not stated) as the compound, how does the Potency read?
Answer: The Potency was inconclusive: 56.2 µM [inhibitor, partial curve, poor fit].

Question: Which Potency does the source give for `COc1ncccc1-c1nc2cc(C(=O)NC(C)C)ccc2o1` here?
Answer: The Potency was inconclusive: 56.2 µM [inhibitor, partial curve, poor fit].

Question: With `COCC(=O)N1CCN(c2nccc(Nc3ccc(OC)cc3)n2)CC1` as the compound, how does the Potency read?
Answer: Its Potency is inconclusive: 44.7 µM [inhibitor, partial curve, poor fit].

Question: For `CN(C)c1ccc(C(=O)N2CCCC(n3cc(-c4nc(-c5ccccc5)no4)nn3)C2)cc1` (configuration not stated), which Potency is on record?
Answer: The Potency was inconclusive: 28.2 µM [inhibitor, full curve, poor fit].

Question: Which Potency does the source give for `COc1ccc(-c2nc3c(c(-c4ccccc4)n2)CN(C(=O)c2ccccc2)CC3)cc1` here?
Answer: Its Potency is inconclusive: 50.1 µM [inhibitor, partial curve, poor fit].

From PubChem BioAssay AID1345082 (National Center for Advancing Translational Sciences (NCATS), 2018)
